{"source": "PubChem BioAssay (Tox21)", "key": {"[1]": {"molecular_target": "Nuclear receptor ROR-gamma (Homo sapiens) (UniProt P51449)", "assay": "qHTS assay to identify small molecule antagonists of the retinoid-related orphan receptor gamma (ROR-gamma) signaling pathway (AID 1159521; further: nearly all actives have a fitted effect of over 50% in size)", "outline": "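Cells were plated, rested 4 h at 37 C, exposed to compounds for 2 h, then given 1 uM final doxycycline hyclate to induce RORγ expression. After 16 h, ONE-Glo luminescence from the ROR response element reporter was measured.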"}, "[2]": {"assay": "qHTS assay to identify small molecule agonists of the AP-1 signaling pathway (AID 1159526; calls by dose curve; on activation: on the % scale 0 is the no-effect control and ±100 the full control effect)", "settings": "ME-180 AP-1-bla reporter, beta-lactamase FRET ratio, 5 h; activation: at 76.8 µM (top of the series) unless noted"}, "[3]": {"molecular_target": "Retinoic acid receptor RXR-alpha (Homo sapiens) (UniProt P19793)", "sequence (P19793 whole entry, looked up)": "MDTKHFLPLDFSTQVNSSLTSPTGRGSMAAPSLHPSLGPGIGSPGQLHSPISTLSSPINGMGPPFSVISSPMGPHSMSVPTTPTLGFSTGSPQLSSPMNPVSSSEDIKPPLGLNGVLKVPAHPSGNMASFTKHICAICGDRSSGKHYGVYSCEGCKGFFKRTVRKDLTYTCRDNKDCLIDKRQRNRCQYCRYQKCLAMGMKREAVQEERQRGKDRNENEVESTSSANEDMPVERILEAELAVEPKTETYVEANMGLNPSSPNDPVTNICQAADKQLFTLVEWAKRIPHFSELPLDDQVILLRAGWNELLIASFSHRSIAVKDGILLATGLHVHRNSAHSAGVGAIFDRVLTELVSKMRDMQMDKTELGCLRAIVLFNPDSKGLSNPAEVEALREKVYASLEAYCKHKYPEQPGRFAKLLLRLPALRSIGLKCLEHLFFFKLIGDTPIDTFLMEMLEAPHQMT", "assay": "qHTS assay to identify small molecule agonists of the RXR signaling pathway (AID 1159527; calls by dose curve; further: nearly all actives have a fitted effect of over 35% in size; on activation: on the % scale 0 is the no-effect control and ±100 the full control effect)", "settings": "HEK293T RXRa-UAS-bla, beta-lactamase ratio, 16 h; activation: at 76.8 µM (top of the series) unless noted", "outline": "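Cells plated at 2,000/well, rested 5 hr at 37 C, pin-dosed with DMSO compound solutions, incubated 16 hr, then loaded with B/G FRET substrate for 2 hr at RT before dual-emission fluorescence reading.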"}, "[4]": {"assay": "qHTS assay to identify small molecule antagonists of the retinoid acid receptor (RAR) signaling pathway - cell viability counter screen (AID 1159551); further: nearly all actives have a fitted effect of over 35% in size", "outline": "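C3RL4 cells were seeded overnight at 37 C, then treated with compounds plus 1 uM (final) retinol for 6 h at 37 C. Viability was read as ATP by CellTiter-Glo luminescence after 30 min at room temperature.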"}, "[5]": {"assay": "qHTS assay to identify small molecule agonists of the retinoic acid receptor (RAR) signaling pathway (AID 1159553); on activation: on the % scale 0 is the no-effect control and ±100 the full control effect", "settings": "C3RL4 RARE luciferase reporter, agonist, 6 h; activation: at 73.3 µM (top of the series) unless noted", "outline": "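C3RL4 cells carrying a RARE luciferase reporter were plated overnight at 37 C, then exposed to compounds in DMSO for 6 hr at 37 C and 5% CO2. Luminescence was read 30 min after luciferase reagent addition at room temperature.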"}, "[6]": {"assay": "qHTS assay to identify small molecule antagonists of the estrogen related receptor (ERR) signaling pathway from Tox21 library - cell viability counter screen (AID 1224834); further: nearly all actives have a fitted effect of over 30% in size", "outline": "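ERR reporter cells were plated 6 h before compound addition, then exposed to test compounds in DMSO for 17.5 h at 37 C. Viability was read as CellTiter-Fluor fluorescence after a 30-minute incubation at 37 C.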"}, "[7]": {"molecular_target": "Luciferin 4-monooxygenase (Photinus pyralis) (UniProt P08659)", "sequence (P08659 whole entry, looked up)": "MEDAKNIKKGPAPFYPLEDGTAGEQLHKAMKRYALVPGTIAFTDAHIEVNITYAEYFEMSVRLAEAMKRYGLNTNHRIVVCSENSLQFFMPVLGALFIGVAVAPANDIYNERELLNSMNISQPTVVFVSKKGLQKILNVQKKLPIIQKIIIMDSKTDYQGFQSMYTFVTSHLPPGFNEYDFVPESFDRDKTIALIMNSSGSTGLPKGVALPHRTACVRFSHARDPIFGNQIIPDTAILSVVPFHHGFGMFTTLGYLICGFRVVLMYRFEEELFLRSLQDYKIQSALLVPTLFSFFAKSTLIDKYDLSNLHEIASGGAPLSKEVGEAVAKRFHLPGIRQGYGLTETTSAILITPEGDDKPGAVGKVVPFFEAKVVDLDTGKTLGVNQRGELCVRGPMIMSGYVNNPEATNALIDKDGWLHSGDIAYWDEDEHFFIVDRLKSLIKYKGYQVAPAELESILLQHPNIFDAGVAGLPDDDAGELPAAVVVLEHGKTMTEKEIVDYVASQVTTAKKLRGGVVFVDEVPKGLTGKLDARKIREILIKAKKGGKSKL", "assay": "qHTS assay to identify small molecule inhibitors of firefly luciferase (AID 1224835); further: nearly all actives have a fitted effect of over 25% in size", "outline": "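Biochemical qHTS: compounds run as interplate titrations against purified firefly enzyme, with D-luciferin and ATP each at its KM concentration. Light output recorded by CCD imaging.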"}, "[8]": {"assay": "qHTS assay to identify small molecule agonists of the constitutive androstane receptor (CAR) signaling pathway - cell viability counter screen (AID 1224836); further: nearly all actives have a fitted effect of over 45% in size", "outline": "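Cells were seeded and incubated 4 hrs. Compounds were added across 15 concentrations together with PK11195 at 0.75 uM final. Plates were incubated 23 hrs at 37 C. CellTiter-Fluor was added and fluorescence measured.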"}, "[9]": {"assay": "qHTS assay to identify small molecule agonists of the RXR signaling pathway - cell viability counter screen (AID 1159529); further: nearly all actives have a fitted effect of over 50% in size", "outline": "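Steps: seed RXR-alpha-UAS-bla HEK 293T cells in assay medium containing 2% charcoal-stripped FBS; incubate 5 hr; add compounds in DMSO; incubate 16 hr at 37 C; after the bla read, add CellTiter-Glo and read luminescence at 30 min.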"}, "[10]": {"assay": "qHTS assay to identify small molecule agonists of the AP-1 signaling pathway - cell viability counter screen (AID 1159525; calls by dose curve; further: nearly all actives have a fitted effect of over 55% in size)", "outline": "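AP-1-bla ME-180 cells in Opti-MEM with 0.5% dialyzed FBS, compound exposure 5 h at 37 C in 15-point titration. Viability read in the same wells as ATP content by CellTiter-Glo luminescence, normalised to tetra-n-octylammonium bromide and DMSO controls.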"}, "[11]": {"assay": "qHTS assay to identify small molecule antagonists of the constitutive androstane receptor (CAR) signaling pathway - cell viability counter screen (AID 1224837); further: nearly all actives have a fitted effect of over 45% in size", "outline": "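HepG2 cells stably expressing hCAR and a CYP2B6-2.2kb reporter were plated and pre-incubated 4 hr at 37 C/5% CO2, then given compounds at 15 concentrations plus 50 nM CITCO (final). After 23 hr, viability was read by CellTiter-Fluor fluorescence.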"}, "[12]": {"assay": "qHTS assay to identify small molecule antagonists of the retinoic acid receptor (RAR) signaling pathway (AID 1159552; further: nearly all actives have a fitted effect of over 50% in size)", "outline": "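Retinol at 1 uM final stimulated RARE-luciferase expression in C3RL4 cells exposed to test compounds for 6 hr at 37 C. Reduced luminescence, read 30 min after detection reagent, indicated pathway antagonism.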"}}, "note": "Values joined by “and” are separate entries in the source; they are usually repeats but may differ in a detail not shown here. Equal entries are not always repeated. The shares of active, inactive and inconclusive entries below differ from those in the screen. For part of these data: Potencies beside an inconclusive call are fits to weak or partial responses and may not hold up. A structure can be active in one record and inactive in another. Active and inactive are the calls of the source. Unless noted, the call rests on the fitted dose curve; in most records, active means well fitted curve in the direction sought with a large enough effect in the repeat runs; inconclusive means weak or mixed curves; inactive means no such curve, though single readings can be large; an effect the other way counts as inactive or inconclusive. Potency means the concentration at half of the fitted maximal effect; tags describe the fitted curve by direction and shape or compound fluorescence and quenching."}
{"smiles": "C=CC(=O)[O][Sn]([CH2]CCC)([CH2]CCC)[CH2]CCC", "values": [{"measurement": "Potency", "setting": "[1]", "value": "active: 0.611 µM"}, {"measurement": "Potency", "setting": "[2]", "value": "inconclusive: 2.19 µM [cytotoxic, full curve]"}, {"measurement": "Potency", "setting": "[3]", "value": "inconclusive: 13.8 µM [falling, full curve]"}, {"measurement": "Potency", "setting": "[4]", "value": "active: 6.11 µM"}, {"measurement": "Potency", "setting": "[5]", "value": "inconclusive: 2.73 µM [inhibitor, full curve]"}, {"measurement": "Potency", "setting": "[6]", "value": "active: 3.06 µM"}]}
{"smiles": "CCC[CH2][Sn]([CH2]CCC)([CH2]CCC)[O][Sn]([CH2]CCC)([CH2]CCC)[CH2]CCC", "values": [{"measurement": "Potency", "setting": "[1]", "value": "active: 0.168 µM"}, {"measurement": "Potency", "setting": "[2]", "value": "inconclusive: 0.537 µM [cytotoxic, full curve]"}, {"measurement": "Potency", "setting": "[3]", "value": "inconclusive: 2.14 µM [falling, partial curve, poor fit]"}, {"measurement": "Potency", "setting": "[4]", "value": "active: 1.5 µM"}, {"measurement": "Potency", "setting": "[7]", "value": "inconclusive: 1.74 µM [inhibitor, full curve]"}, {"measurement": "Potency", "setting": "[8]", "value": "active: 0.752 µM"}]}
{"smiles": "Nc1nc(N)nc(NC2CC2)n1", "values": [{"measurement": "Potency", "setting": "[1]", "value": "inactive"}, {"measurement": "Potency", "setting": "[3]", "value": "inconclusive: 43.6 µM [activator, partial curve, poor fit]"}, {"measurement": "Potency", "setting": "[5]", "value": "inconclusive: 77 µM [inhibitor, single point]"}]}
{"smiles": "Cc1ccccc1[N+](=O)[O-]", "values": [{"measurement": "Potency", "setting": "[1]", "value": "inactive"}, {"measurement": "Potency", "setting": "[9]", "value": "inactive"}, {"measurement": "activation", "setting": "[5]", "value": "active: 0.464% [at 94.8 µM]"}]}
{"smiles": "CN(C)[C@@H]1C(=O)C(C(N)=O)=C(O)[C@@]2(O)C(=O)C3=C(O)c4c(O)cccc4[C@@](C)(O)[C@H]3C[C@@H]12", "values": [{"measurement": "Potency", "setting": "[10]", "value": "inactive"}, {"measurement": "Potency", "setting": "[3]", "value": "inconclusive: 21.9 µM [rising, partial curve]"}, {"measurement": "activation", "setting": "[3]", "value": "inconclusive: -0.526%"}, {"measurement": "Potency", "setting": "[9]", "value": "inactive"}, {"measurement": "Potency", "setting": "[4]", "value": "inactive"}, {"measurement": "Potency", "setting": "[6]", "value": "inconclusive: 33.5 µM [cytotoxic, single point]"}, {"measurement": "Potency", "setting": "[11]", "value": "inconclusive: 29.8 µM [cytotoxic, partial curve, poor fit]"}]}
{"smiles": "CC1(C)C(C=C(Cl)Cl)C1C(=O)OC(C#N)c1ccc(F)c(Oc2ccccc2)c1", "note": "(configuration not stated)", "values": [{"measurement": "Potency", "setting": "[1]", "value": "inconclusive: 1.22 µM [inhibitor, full curve, poor fit]"}, {"measurement": "Potency", "setting": "[2]", "value": "inconclusive: 24.5 µM [falling, partial curve, poor fit]"}, {"measurement": "activation", "setting": "[3]", "value": "inconclusive: -14%"}, {"measurement": "Potency", "setting": "[8]", "value": "inactive"}]}
{"smiles": "CN(C)[C@@H]1C(=O)C(C(N)=O)=C(O)[C@@]2(O)C(=O)C3=C(O)c4c(O)ccc(Cl)c4[C@@](C)(O)[C@H]3C[C@@H]12", "values": [{"measurement": "Potency", "setting": "[1]", "value": "active: 49.6 µM"}, {"measurement": "Potency", "setting": "[2]", "value": "inconclusive: 44.6 µM [rising, partial curve]"}, {"measurement": "Potency", "setting": "[3]", "value": "inconclusive: 35.4 µM [rising, partial curve]"}, {"measurement": "Potency", "setting": "[12]", "value": "inconclusive: 55.6 µM [inhibitor]"}, {"measurement": "Potency", "setting": "[6]", "value": "inconclusive: 17.6 µM [cytotoxic, full curve]"}]}
{"smiles": "CCC(C)c1cccc(C(C)CC)c1O", "note": "(configuration not stated)", "values": [{"measurement": "Potency", "setting": "[10]", "value": "inconclusive: 49 µM [cytotoxic, partial curve, poor fit]"}, {"measurement": "Potency", "setting": "[2]", "value": "inconclusive: 24.5 µM"}, {"measurement": "Potency", "setting": "[4]", "value": "inconclusive: 61.1 µM [cytotoxic, partial curve, poor fit]"}, {"measurement": "Potency", "setting": "[12]", "value": "inconclusive: 15.4 µM [inhibitor, full curve, poor fit]"}, {"measurement": "Potency", "setting": "[6]", "value": "inconclusive: 13.7 µM [cytotoxic, full curve]"}]}
{"smiles": "c1cc(OCC2CO2)ccc1Cc1ccc(OCC2CO2)cc1", "note": "(configuration not stated)", "values": [{"measurement": "Potency", "setting": "[10]", "value": "inconclusive: 22 µM"}, {"measurement": "Potency", "setting": "[2]", "value": "inconclusive: 38.9 µM [cytotoxic]"}, {"measurement": "activation", "setting": "[2]", "value": "inconclusive: -8.61%"}, {"measurement": "Potency", "setting": "[3]", "value": "inconclusive: 43.8 µM [fluorescent, partial curve] and inconclusive: 38.9 µM"}, {"measurement": "Potency", "setting": "[9]", "value": "inactive"}, {"measurement": "Potency", "setting": "[6]", "value": "inconclusive: 68.9 µM [cytotoxic, single point] and inconclusive: 68.6 µM [cytotoxic, single point]"}]}
{"smiles": "CC(C)CC(C)Nc1ccc(Nc2ccccc2)cc1", "note": "(configuration not stated)", "values": [{"measurement": "Potency", "setting": "[10]", "value": "inconclusive: 38.3 µM [cytotoxic]"}, {"measurement": "Potency", "setting": "[2]", "value": "inconclusive: 54 µM [cytotoxic]"}, {"measurement": "Potency", "setting": "[3]", "value": "inconclusive: 60.6 µM [cytotoxic]"}, {"measurement": "Potency", "setting": "[9]", "value": "active: 54 µM"}, {"measurement": "Potency", "setting": "[4]", "value": "inconclusive: 60.1 µM [cytotoxic, single point]"}, {"measurement": "Potency", "setting": "[11]", "value": "inconclusive: 67.4 µM [cytotoxic, single point]"}]}
{"smiles": "CCOP(=S)(OCC)SCn1nnc2ccccc2c1=O", "values": [{"measurement": "Potency", "setting": "[1]", "value": "inconclusive: 43.3 µM [inhibitor, partial curve]"}, {"measurement": "Potency", "setting": "[3]", "value": "inconclusive: 61.6 µM [rising, single point]"}, {"measurement": "Potency", "setting": "[6]", "value": "active: 43.3 µM"}]}
{"smiles": "OC(c1ccc(Cl)cc1)(c1ccc(Cl)cc1)c1cccnc1", "values": [{"measurement": "activation", "setting": "[2]", "value": "inconclusive: -4.53%"}, {"measurement": "Potency", "setting": "[3]", "value": "inconclusive: 27.5 µM [inhibitor, partial curve, poor fit]"}, {"measurement": "Potency", "setting": "[6]", "value": "inconclusive: 54.5 µM [cytotoxic, partial curve]"}]}
